These are yes or no findings as the source states them, for the method shown. Some binding calls cover weakened binding; strength is not graded here.

Chains of the proteins cited; added tags and fusions are not shown. Lines headed by an entry give the natural chain unless they say otherwise; changes in a name come on top. Residues count along the entry.
UniProt Q8N743, residues 26-410: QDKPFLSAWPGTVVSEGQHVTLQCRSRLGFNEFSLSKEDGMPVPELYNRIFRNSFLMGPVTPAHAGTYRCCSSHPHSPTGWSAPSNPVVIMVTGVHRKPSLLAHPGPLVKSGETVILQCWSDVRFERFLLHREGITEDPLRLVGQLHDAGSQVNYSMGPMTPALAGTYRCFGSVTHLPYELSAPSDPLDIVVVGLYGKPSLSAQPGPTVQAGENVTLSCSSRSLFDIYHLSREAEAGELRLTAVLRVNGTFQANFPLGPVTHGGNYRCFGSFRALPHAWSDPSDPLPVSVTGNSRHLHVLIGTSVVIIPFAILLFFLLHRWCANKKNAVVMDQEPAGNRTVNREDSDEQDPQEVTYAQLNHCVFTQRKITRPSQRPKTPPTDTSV
UniProt Q99706, residues 22-377: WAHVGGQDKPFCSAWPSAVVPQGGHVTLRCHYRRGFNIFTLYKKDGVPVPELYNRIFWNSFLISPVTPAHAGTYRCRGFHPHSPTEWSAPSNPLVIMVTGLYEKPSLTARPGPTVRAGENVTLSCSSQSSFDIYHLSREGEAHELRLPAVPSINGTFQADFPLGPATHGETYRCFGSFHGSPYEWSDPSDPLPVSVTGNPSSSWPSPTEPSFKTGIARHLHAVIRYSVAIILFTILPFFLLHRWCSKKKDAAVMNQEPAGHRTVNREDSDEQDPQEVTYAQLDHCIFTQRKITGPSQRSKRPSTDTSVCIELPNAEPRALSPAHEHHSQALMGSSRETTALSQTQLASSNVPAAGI
UniProt Q8N109: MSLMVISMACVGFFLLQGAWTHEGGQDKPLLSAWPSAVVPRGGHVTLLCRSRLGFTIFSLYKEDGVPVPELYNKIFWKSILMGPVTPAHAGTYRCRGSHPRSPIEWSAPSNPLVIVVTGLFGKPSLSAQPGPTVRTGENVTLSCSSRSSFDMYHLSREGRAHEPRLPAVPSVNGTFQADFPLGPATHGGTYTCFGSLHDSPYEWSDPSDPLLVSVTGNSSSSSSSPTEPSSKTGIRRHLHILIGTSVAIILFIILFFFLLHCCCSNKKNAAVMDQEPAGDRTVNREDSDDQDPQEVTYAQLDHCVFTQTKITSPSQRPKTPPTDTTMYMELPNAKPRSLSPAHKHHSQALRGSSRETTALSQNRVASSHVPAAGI
UniProt Q8NHK3: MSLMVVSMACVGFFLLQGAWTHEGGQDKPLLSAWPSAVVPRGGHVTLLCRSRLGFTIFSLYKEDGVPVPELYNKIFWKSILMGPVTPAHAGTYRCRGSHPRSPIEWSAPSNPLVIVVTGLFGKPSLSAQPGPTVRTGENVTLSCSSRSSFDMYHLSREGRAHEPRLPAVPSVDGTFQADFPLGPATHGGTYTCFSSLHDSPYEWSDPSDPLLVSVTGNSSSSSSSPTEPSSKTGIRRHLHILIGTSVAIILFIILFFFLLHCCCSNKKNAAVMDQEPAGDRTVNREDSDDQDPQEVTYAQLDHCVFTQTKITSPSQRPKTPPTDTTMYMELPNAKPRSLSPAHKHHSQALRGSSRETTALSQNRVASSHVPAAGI

Assay [1] concerns the target KIR3DL3 expressed on 3T3 cells (human) (UniProt Q8N743). In words: flow cytometry, transduced 3T3 cells. For orientation: In flow cytometry, cells or beads pass a laser one at a time.
Assay [2] has as its target KIR2DL4 expressed on 3T3 cells (human) (UniProt Q99706). In words: flow cytometry, transduced 3T3 cells.
Assay [3] concerns the target KIR3DL1. Briefly: flow cytometry, transduced 3T3 cells.
Assay [4] concerns the target KIR2DL3. In words: flow cytometry, transduced 3T3 cells.
Assay [5] addresses KIR2DL2. In words: flow cytometry, transduced 3T3 cells.
Assay [6] has as its target KIR2DL1. Briefly: flow cytometry, transduced 3T3 cells.
Assay [7] addresses KIR3DL2. In words: flow cytometry, transduced 3T3 cells.
Assay [8] addresses KIR2DL5B*003 allele expressed on 3T3 cells (human) (UniProt Q8N109). Briefly: flow cytometry, 3T3 cells expressing KIR2DL5 alleles, mAb 5 µg/ml.
Assay [9] concerns the target KIR2DL5 wild type (KIR2DL5A*001) expressed on cells (human) (UniProt Q8N109). In words: flow cytometry, 5 µg/ml mAb on transduced 3T3 cells.
Assay [10] deals with KIR2DL5 D0 variant G97S expressed on 3T3 cells (human) (UniProt Q8N109). Briefly: flow cytometry, 3T3 cells expressing KIR2DL5 D0 variants, mAb 5 µg/ml.
Assay [11] has as its target KIR2DL5 D0 variant R52H expressed on 3T3 cells (human) (UniProt Q8N109). The description is as above.
The target in assay [12] is KIR2DL5 D0 variant P112S expressed on 3T3 cells (human) (UniProt Q8N109). The description is as above.
Assay [13] addresses KIR2DL5 D0 variant T46S expressed on 3T3 cells (human) (UniProt Q8N109). Described as above.
Assay [14] deals with KIR2DL5 wild type (KIR2DL5A*001) expressed on cells (human) (UniProt Q8N109). Briefly: high-throughput flow cytometry (hybridoma selection).
The target in assay [15] is KIR2DL5A*005 allele expressed on 3T3 cells (human) (UniProt Q8NHK3). Briefly: flow cytometry, 3T3 cells expressing KIR2DL5 alleles.
The target in assay [16] is KIR2DL5 wild type (KIR2DL5A*001) expressed on cells (human) (UniProt Q8N109). In words: flow cytometry, transduced 3T3 cells, mAb 5 µg/ml.
Assay [17] shares this target. In words: flow cytometry, 3T3 cells expressing KIR2DL5 alleles, mAb 5 µg/ml.
The target of assay [18] is KIR2DL5B*003 allele expressed on 3T3 cells (human) (UniProt Q8N109). In words: flow cytometry, 5 µg/mL mAb on 3T3 cells transduced with the allele.
Assay [19] has the same target. Briefly: flow cytometry, 5 µg/mL mAb on 3T3 cells expressing the allele.
For assay [20] the target is unchanged. Briefly: flow cytometry, transduced 3T3 cells, mAb 5 µg/mL.
Assay [21] has as its target KIR2DL5-Ig fusion protein (KIR2DL5 extracellular domain fused to human IgG1 Fc) (human) (UniProt Q8N109). In words: biolayer interferometry (Octet), KIR2DL5-Ig on anti-human Fc sensors, mAb in solution. A general note: Biolayer interferometry detects binding as a change in optical thickness at a sensor tip.
The target of assay [22] is D2-deleted KIR2DL5 expressed on 3T3 cells (human) (UniProt Q8N109). Briefly: flow cytometry, transduced 3T3 cells, mAb 5 µg/ml.
Assay [23] addresses KIR2DL5A*005 allele expressed on 3T3 cells (human) (UniProt Q8NHK3). In words: flow cytometry, 3T3 cells expressing KIR2DL5 alleles, mAb 5 µg/ml.

B1: anti-KIR2DL5 mAb clone B2A18 (antibody, V domains shown)
VH: QIQLVQSGPEVKKPGETVKISCKASGYTFTKYGMNWVKQAPGKGLKWMGWINTNTGESTYAEDFKGRFAFSLETSANTAFLQINNLKNEDTAAYFCARWGPYGSSLYYGMDYWGQGTSVTVS
VL: DIQMTQSSSSFSISLGDRVTITCRASEDLYNRLAWYQQKPGNAPRLLISGATSLETGVPSRFSGSGSGKDFTLSIPSVQTEDVGTYYCQQYRYTPWTFGGGTTLN
Consider B1, for which the binding result in [1], in assay [2], in assay [3], in [4], in assay [5] and in assay [6] was “no binding (tested: 5 µg/ml)” each time. For the same molecule, the binding entry in assay [7] is given as “no binding (tested: 5 µg/ml)”; in assay [8], “binds”.

B2: anti-KIR2DL5 mAb clone B7B23 (antibody, V domains shown)
VH: QVQLQQSGAELVRPGVSVKISCKGSGYTFTDYTMHWVKQSHAKSLEWIGVISPYYGDASYNQKFKGKATMTVDKSSSTAYMELARLTSEDSAIYYCARGLLRGFAYWGQGTLVTVS
VL: DIVMTQSPSSKDMSVGQKVTMRCKSSKSLLNSSNQKKYLAWYQQKPGQSPKLLVYFASIRESGVPDRFIGSGSGTDFTLTISSVQVEDLADYFCQQHYSTPWTFGGG
B2: the binding entry in assay [9], in assay [10], in [11], in [12], in assay [13] and in [14] was “binds” throughout. Further, the binding result in assay [15], in assay [1], in [2], in [3], in assay [4] and in assay [5] was “no binding (tested: 5 µg/ml)” each time. The binding entry in assay [6] was “no binding (tested: 5 µg/ml)”; in [7], “no binding (tested: 5 µg/ml)”; in assay [16], “binds”; in [17], “binds”; in assay [8], “binds”.

B3: anti-KIR2DL5 mAb clone F8B30 (antibody, V domains shown)
VH: QIQLVQSGPELKKPGETVKISCKASGYTFTDYSMHWVKQAPGKGLKWMGWINTETGGPTYADDFKGRFAFSLETSATTAYLQINNLKNEDTATYFCSRDVDLYFDYWGQGTTLTVS
VL: DIQMTQSPASLSASVGETVTITCRTSENIYSYLAWYQQKQGKSPQLLVYNAKTLVEGVPSRFSGSGSGTQFSVKINSLQPEDFGNYYCQHHYGIPFTFGGGTKLEIK
As to B3, the binding result is reported as “binds” in assay [18]; “binds” in [19]; “no binding (tested: 5 µg/mL)” in assay [1]; “no binding (tested: 5 µg/mL)” in [2]; “no binding (tested: 5 µg/mL)” in [3]; “no binding (tested: 5 µg/mL)” in assay [4]. The binding result was “no binding (tested: 5 µg/mL)” in assay [5]; “no binding (tested: 5 µg/mL)” in assay [6]; “no binding (tested: 5 µg/mL)” in assay [7]; “binds” in assay [20]; “binds” in [21].

B4: anti-KIR2DL5 mAb clone B11B4 (antibody, V domains shown)
VH: QVQLQQSGGELVKPGASVKMSCKAFGYTFTSFPIEWMKQNHGKSLEWIGNFHPYNDDTKYNEKFNGKAKLTAETSSKTVYLELSRLTSDDCSVYYCARGSDYSFGLDYWGQGTSVTVSS
VL: GIVLTQSPASLVVSLGQRATISCRASESVDSYGYSFMHWYQQKPGQPPKLLIYRASNLKSGIPARFSGSGCRTDFTLTINPVEADDVATYYCQQSNEDPWTFGGGTKAGN
As to B4, the binding entry in assay [9], in assay [10], in [11], in [12], in assay [13] and in assay [14] was “binds” each time. Further, the binding entry in assay [1], in assay [2], in assay [3], in assay [4], in [5] and in [6] was “no binding (tested: 5 µg/ml)” in each case. Further, the binding entry in assay [7] was “no binding (tested: 5 µg/ml)”; in [22] it was “binds”; in assay [16], “binds”; in [17], “binds”; in assay [23], “binds”; in assay [8], “binds”.

B5: anti-KIR2DL5 mAb clone B33C12 (antibody, V domains shown)
VH: QVQLQQSGAELVKPGASVKMSCKAFGYTFTSFPIEWMKQNHGKSLEWIGNFHPSNDDTKYNEKFNGKAKLTAETSSKTVYLELSRLTSDDSAVYYCARGSDYSFALDYWGQGTSVTVSS
VL: GIVLTQSPASLAVSLGQRATISCRASESVDSYGYSFMHWYQQKPGQPPKLLIYRASNLKSGIPARFSGSGSRTDFTLTINPVEADDVATYYCQQSNEDPWTFGGGTKLEIK
With B5, the binding entry in [1], in assay [2], in [3], in [4], in [5] and in [6] was “no binding (tested: 5 µg/ml)” each time. For the same molecule, the values for the binding result in assay [7] and in assay [8] were “no binding (tested: 5 µg/ml)” and “binds”, respectively.

These data come from US20250019435A1.
